Results on four molecules are retold here after publication PMC2645234.

The chains behind the UniProt entries cited, without tags or fusion partners. Where a name states a change or a piece, a line headed by the entry shows the natural chain unless it says otherwise.
UniProt P62330: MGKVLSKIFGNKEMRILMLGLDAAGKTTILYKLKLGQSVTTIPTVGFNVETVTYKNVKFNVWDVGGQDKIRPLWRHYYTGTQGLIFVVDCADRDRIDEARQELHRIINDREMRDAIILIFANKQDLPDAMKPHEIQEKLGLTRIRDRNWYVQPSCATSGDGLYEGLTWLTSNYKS

The target in assay [1] is T1, GFP-AR149 (N-terminal fragment of A-RAF, residues 1-149) (human) (UniProt P10398).
T1 sequence: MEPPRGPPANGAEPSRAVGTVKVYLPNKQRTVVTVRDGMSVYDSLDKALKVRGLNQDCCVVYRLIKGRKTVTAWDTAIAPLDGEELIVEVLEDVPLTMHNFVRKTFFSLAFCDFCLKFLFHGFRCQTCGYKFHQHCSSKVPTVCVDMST
Briefly: co-IP; COS7 cells co-transfected with GFP-AR149 and HA-ARF6 (wt, Q67L or T27N); lysis buffer 50 mM Tris-HCl pH 7.0, 2 mM MgCl2, 100 mM NaCl, 10% glycerol, 0.75% NP-40; precipitated with anti-GFP, 2 h at 4°C, blotted with anti-HA.

Another assay addresses T2, GST-GGA3 (UniProt Q9NZ52).
T2 sequence: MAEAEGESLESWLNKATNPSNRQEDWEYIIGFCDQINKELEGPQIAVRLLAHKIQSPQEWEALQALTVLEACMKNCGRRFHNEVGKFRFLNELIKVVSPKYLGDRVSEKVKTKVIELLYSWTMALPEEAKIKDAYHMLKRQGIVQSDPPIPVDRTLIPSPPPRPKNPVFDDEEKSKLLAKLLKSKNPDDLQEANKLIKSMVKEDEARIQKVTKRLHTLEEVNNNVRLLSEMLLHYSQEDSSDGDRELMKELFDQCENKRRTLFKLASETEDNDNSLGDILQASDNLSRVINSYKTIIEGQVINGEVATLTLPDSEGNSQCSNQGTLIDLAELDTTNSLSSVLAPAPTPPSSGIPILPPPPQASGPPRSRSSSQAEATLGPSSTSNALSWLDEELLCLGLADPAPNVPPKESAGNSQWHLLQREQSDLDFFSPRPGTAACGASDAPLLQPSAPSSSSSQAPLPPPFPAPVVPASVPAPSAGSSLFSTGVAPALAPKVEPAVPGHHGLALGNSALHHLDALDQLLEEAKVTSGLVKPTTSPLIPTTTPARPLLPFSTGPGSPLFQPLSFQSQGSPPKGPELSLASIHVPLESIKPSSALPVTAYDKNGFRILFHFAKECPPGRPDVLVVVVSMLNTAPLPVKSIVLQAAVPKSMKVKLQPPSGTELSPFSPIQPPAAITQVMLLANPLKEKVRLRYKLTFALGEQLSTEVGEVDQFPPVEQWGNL
Briefly: pull-down; 25 µg GST-GGA3 immobilized on glutathione-Sepharose, incubated 2 h at 4°C with clarified lysates of COS7 cells transfected with HA-ARF6 (wt, Q67L, T27N) plus indicated plasmids; in some panels starved and then EGF 100 ng/ml for 10 min, EFA6 co-expression or A-RAF siRNA; washed with PBS; immunoblot; only the target purified.

The target in assay [2] is HA-ARF6 wild type (UniProt P62330). The assay can be described thus: pull-down; GST-GGA3 beads pull down HA-ARF6 from lysates of COS7 cells co-expressing GFP-AR149 (EGF treated); AR149 detected in the pulled-down ARF6 complex by immunoblot. A general note: Immunoblotting shows a protein as a band on a membrane.
Assay [3] deals with HA-ARF6(Q67L), GTP-locked (UniProt P62330). Briefly: co-IP; same lysates as a1, reverse order: precipitated with anti-HA, 2 h at 4°C, blotted with anti-GFP.
The target of assay [4] is HA-ARF6 wild type (UniProt P62330). The assay is described as above.
For assay [5], the target named is HA-ARF6(T27N), GDP-locked (UniProt P62330). The assay is described as above.

These are yes or no findings as the source states them, for the method shown. In cells and extracts the contact can be indirect. Some results given as binding are weak or reduced against the parent protein; the word gives no strength. Where a sequence is shown, tags or fusion partners need not be part of it.

Turning to “HA-ARF6(T27N), GDP-locked (from UniProt P62330 1-175)”, the binding result is recorded as “binds” in assay [1] and “no binding” with GST-GGA3.

In the case of “HA-ARF6 wild type (from UniProt P62330 1-175)”, the binding entry (in assay [1]; in the assay with GST-GGA3) was “binds” in each case.

In the case of “HA-ARF6(Q67L), GTP-locked (from UniProt P62330 1-175)”, the binding entry (in assay [1]; in the assay with GST-GGA3) was “binds” throughout.

B1: GFP-AR149 (N-terminal fragment of A-RAF, residues 1-149) (domain or fragment, UniProt P10398 1-149)
chain: T1 sequence
For B1, the binding result (in the assay with HA-ARF6 wild type [2]; in assay [3]; with HA-ARF6 wild type [4]; in assay [5]) was “binds” in each case.
